System: MCF7 cells (breast tumor cells) WT
Assay: cells
Conditions: Homo sapiens, read-out: proliferation MCF7 (WT) IC50 (nM)

Structure (SMILES)	IC50 [nM]
Oc1ccc2c(c1)CCCC(c1ccc(SC(F)F)cc1)=C2c1ccc(O[C@H]2CCN(CCCF)C2)cc1 [Example 157, 6-[4-(difluoromethylsulfanyl)phenyl]-5-[4-[(3S)-1-(3-fluoropropyl)pyrrolidin-3-yl]oxyphenyl]-8,9-dihydro-7H-benzo[7]annulen-2-ol]	0.6
Cc1ccc(C2=C(c3ccc(O[C@H]4CCN(CCCF)C4)cc3)c3ccc(O)cc3CCC2)cc1F [Example 35, 6-(3-fluoro-4-methyl-phenyl)-5-[4-[(3S)-1-(3-fluoropropyl)pyrrolidin-3-yl]oxyphenyl]-8,9-dihydro-7H-benzo[7]annulen-2-ol]	0.2
CCOc1ncc(C2=C(c3ccc(O[C@H]4CCN(CCCF)C4)cc3)c3ccc(O)cc3CCC2)cc1C(F)(F)F [Example 132, 6-[6-ethoxy-5-(trifluoromethyl)-3-pyridyl]-5-[4-[(3S)-1-(3-fluoropropyl)pyrrolidin-3-yl]oxyphenyl]-8,9-dihydro-7H-benzo[7]annulen-2-ol]	0.7
COc1cc(C)c(C2=C(c3ccc(O[C@H]4CCN(CCCF)C4)cc3)c3ccc(O)cc3CCC2)cc1C [Example 92, 5-[4-[(3S)-1-(3-fluoropropyl)pyrrolidin-3-yl]oxyphenyl]-6-(4-methoxy-2,5-dimthyl-phenyl)-8,9-dihydro-7H-benzo[7]annulen-2-ol]	0.5
Oc1ccc2c(c1)CCCC(c1ccc3[nH]ccc3c1)=C2c1ccc(O[C@H]2CCN(CCCF)C2)cc1 [Example 12, 5-[4-[(3S)-1-(3-fluoropropyl)pyrrolidin-3-yl]oxyphenyl]-6-(1H-indol-5-yl)-8,9-dihydro-7H-benzo[7]annulen-2-ol]	28
CCOc1ccc(C2=C(c3ccc(O[C@H]4CCN(CCCF)C4)cc3)c3ccc(O)cc3CCC2)c(C)c1 [Example 27, 6-(4-ethoxy-2-methyl-phenyl)-5-[4-[(3S)-1-(3-fluoropropyl)pyrrolidin-3-yl]oxyphenyl]-8,9-dihydro-7H-benzo[7]annulen-2-ol]	0.2
O=S(=O)(c1ccc(C2=C(c3ccc(O[C@H]4CCN(CCCF)C4)cc3)c3ccc(O)cc3CCC2)cc1)C(F)(F)F [Example 166, 5-[4-[(3S)-1-(3-fluoropropyl)pyrrolidin-3-yl]oxyphenyl]-6-[4-(trifluoromethylsulfonyl)phenyl]-8,9-dihydro-7H-benzo[7]annulen-2-ol]	0.8
O=C(O)c1ccc2c(c1)CCCC(c1ccc(OC(F)(F)F)cc1F)=C2c1ccc(O[C@H]2CCN(CCCF)C2)cc1 [Example 168, 5-[4-[(3S)-1-(3-fluoropropyl)pyrrolidin-3-yl]oxyphenyl]-6-[2-fluoro-4-(trifluoromethoxy)phenyl]-8,9-dihydro-7H-benzo[7]annulen-2-carboxylic acid]	4
Oc1ccc2c(c1)CCCC(C1=CCOCC1)=C2c1ccc(O[C@H]2CCN(CCCF)C2)cc1 [Example 202, 6-(3,6-dihydro-2H-pyran-4-yl)-5-{4-[(S)-1-(3-fluoro-propyl)-pyrrolidin-3-yloxy]-phenyl}-8,9-dihydro-7H-benzocyclohepten-2-ol]	0.3
COc1ccc(C2=C(c3ccc(O[C@H]4CCN(CCCF)C4)cc3)c3ccc(O)cc3CCC2)c(C)n1 [Example 97, 5-[4-[(3S)-1-(3-fluoropropyl)pyrrolidin-3-yl]oxyphenyl]-6-(6-methoxy-2-methyl-3-pyridyl)-8,9-dihydro-7H-benzo[7]annulen-2-ol]	0.2
CCOc1ccc(C2=C(c3ccc(O[C@H]4CCN(CCCF)C4)cc3)c3ccc(O)cc3CCC2)cn1 [Example 34, 6-(6-ethoxy-3-pyridyl)-5-[4-[(3S)-1-(3-fluoropropyl)pyrrolidin-3-yl]oxyphenyl]-8,9-dihydro-7H-benzo[7]annulen-2-ol]	0.2
CC(C)(C)c1cc(C2=C(c3ccc(O[C@H]4CCN(CCCF)C4)cc3)c3ccc(O)cc3CCC2)cc(F)n1 [Example 172, 6-(6-tert-butyl-2-fluoro-4-pyridyl)-5-[4-[(3S)-1-(3-fluoropropyl)pyrrolidin-3-yl]oxyphenyl]-8,9-dihydro-7H-benzo[7]annulen-2-ol]	30
COc1ccc(C2=C(c3ccc(O[C@H]4CCN(CCCF)C4)cc3)c3ccc(O)cc3CCC2)c(F)c1F [Example 93, 6-(2,3-difluoro-4-methoxy-phenyl)-5-[4-[(3S)-1-(3-fluoropropyl)pyrrolidin-3-yl]oxyphenyl]-8,9-dihydro-7H-benzo[7]annulen-2-ol]	0.2
O=C(O)c1ccc2c(c1F)CCCC(c1ccc(Cl)cc1F)=C2c1ccc(O[C@H]2CCN(CCCF)C2)cc1 [Example 212, 6-(4-chloro-2-fluoro-phenyl)-1-fluoro-5-[4-[(3S)-1-(3-fluoropropyl)pyrrolidin-3-yl]oxyphenyl]-8,9-dihydro-7H-benzo[7]annulene-2-carboxylic acid]	4
CCN1CCc2cc(C3=C(c4ccc(O[C@H]5CCN(CCCF)C5)cc4)c4ccc(O)cc4CCC3)ccc21 [Example 106, 6-(1-ethylindolin-5-yl)-5-[4-[(3S)-1-(3-fluoropropyl)pyrrolidin-3-yl]oxyphenyl]-8,9-dihydro-7H-benzo[7]annulen-2-ol]	1
CCOc1cc(F)c(C2=C(c3ccc(O[C@H]4CCN(CCCF)C4)cc3)c3ccc(O)cc3CCC2)cc1F [Example 62, 6-(4-ethoxy-2,5-difluoro-phenyl)-5-[4-[(3S)-1-(3-fluoropropyl)pyrrolidin-3-yl]oxyphenyl]-8,9-dihydro-7H-benzo[7]annulen-2-ol]	0.4
Oc1ccc2c(c1F)CCCC(c1ccc(OC(F)F)c(F)c1)=C2c1ccc(O[C@H]2CCN(CCCF)C2)cc1 [Example 79, 6-[4-(difluoromethoxy)-3-fluoro-phenyl]-1-fluoro-5-[4-[(3S)-1-(3-fluoropropyl)pyrrolidin-3-yl]oxyphenyl]-8,9-dihydro-7H-benzo[7]annulen-2-ol]	6
COc1ccc(C2=C(c3ccc(O[C@H]4CCN(CCCF)C4)cc3)c3ccc(O)cc3CCC2)c(OC)c1 [Example 64, 6-(2,4-dimethoxyphenyl)-5-[4-[(3S)-1-(3-fluoropropyl)pyrrolidin-3-yl]oxyphenyl]-8,9-dihydro-7H-benzo[7]annulen-2-ol]	0.3
Oc1ccc2c(c1F)CCCC(c1ccc(F)cc1C(F)(F)F)=C2c1ccc(O[C@H]2CCN(CCCF)C2)cc1 [Example 115, 1-fluoro-5-[4-[(3S)-1-(3-fluoropropyl)pyrrolidin-3-yl]oxyphenyl]-6-[4-fluoro-2-(trifluoromethyl)phenyl]-8,9-dihydro-7H-benzo[7]annulen-2-ol]	0.3
Cc1ccc(C2=C(c3ccc(O[C@H]4CCN(CCCF)C4)cc3)c3ccc(O)c(F)c3CCC2)c(F)c1 [Example 45, 1-fluoro-6-(2-fluoro-4-methyl-phenyl)-5-[4-[(3S)-1-(3-fluoropropyl)pyrrolidin-3-yl]oxyphenyl]-8,9-dihydro-7H-benzo[7]annulen-2-ol]	0.7
Nc1ncc(C2=C(c3ccc(O[C@H]4CCN(CCCF)C4)cc3)c3ccc(O)cc3CCC2)cn1 [Example 141, 6-(2-aminopyrimidin-5-yl)-5-[4-[(3S)-1-(3-fluoropropyl)pyrrolidin-3-yl]oxyphenyl]-8,9-dihydro-7H-benzo[7]annulen-2-ol]	0.3
CC(C)(C)OC(=O)N1CCOc2ccc(C3=C(c4ccc(O[C@H]5CCN(CCCF)C5)cc4)c4ccc(O)cc4CCC3)cc21 [Example 156, tert-butyl 6-[5-[4-[(3S)-1-(3-fluoropropyl)pyrrolidin-3-yl]oxyphenyl]-2-hydroxy-8,9-dihydro-7H-benzo[7]annulen-6-yl]-2,3-dihydro-1,4-benzoxazine-4-carboxylate]	2
CC(C)(C)c1ccc(C2=C(c3ccc(O[C@H]4CCN(CCCF)C4)cc3)c3ccc(O)cc3CCC2)cc1 [Example 72, 6-(4-tert-butylphenyl)-5-[4-[(3S)-1-(3-fluoropropyl)pyrrolidin-3-yl]oxyphenyl]-8,9-dihydro-7H-benzo[7]annulen-2-ol]	0.6
Oc1ccc2c(c1)CCCC(c1cccnc1)=C2c1ccc(O[C@H]2CCN(CCCF)C2)cc1 [Example 154, 5-[4-[(3S)-1-(3-fluoropropyl)pyrrolidin-3-yl]oxyphenyl]-6-(3-pyridyl)-8,9-dihydro-7H-benzo[7]annulen-2-ol]	0.4
CC(C)(C)OC(=O)N1CC=C(C2=C(c3ccc(O[C@H]4CCN(CCCF)C4)cc3)c3ccc(O)cc3CCC2)CC1 [Example 24, 4-(5-{4-[(S)-1-(3-fluoro-propyl)-pyrrolidin-3-yloxy]-phenyl}-2-hydroxy-8,9-dihydro-7H-benzocyclohepten-6-yl)-3,6-dihydro-2H-pyridine-1-carboxylic acid tert-butyl ester]	63
Oc1ccc2c(c1)CCCC(C1=CCC(F)(F)CC1)=C2c1ccc(O[C@H]2CCN(CCCF)C2)cc1 [Example 207, 6-(4,4-difluorocyclohexen-1-yl)-5-[4-[(3S)-1-(3-fluoropropyl)pyrrolidin-3-yl]oxyphenyl]-8,9-dihydro-7H-benzo[7]annulen-2-ol]	0.3
Oc1ccc2c(c1)CCCC(c1ccc(OCC(F)(F)F)cc1)=C2c1ccc(O[C@H]2CCN(CCCF)C2)cc1 [Example 119, 5-[4-[(3S)-1-(3-fluoropropyl)pyrrolidin-3-yl]oxyphenyl]-6-[4-(2,2,2-trifluoroethoxy)phenyl]-8,9-dihydro-7H-benzo[7]annulen-2-ol]	0.7
COc1ccc(C2=C(c3ccc(O[C@H]4CCN(CCCF)C4)cc3)c3ccc(O)cc3CCC2)c(F)c1 [Example 29, 6-(2-fluoro-4-methoxy-phenyl)-5-[4-[(3S)-1-(3-fluoropropyl)pyrrolidin-3-yl]oxyphenyl]-8,9-dihydro-7H-benzo[7]annulen-2-ol]	0.5
COc1ncc(C2=C(c3ccc(O[C@H]4CCN(CCCF)C4)cc3)c3ccc(O)cc3CCC2)cc1F [Example 102, 6-(5-fluoro-6-methoxy-3-pyridyl)-5-[4-[(3S)-1-(3-fluoropropyl)pyrrolidin-3-yl]oxyphenyl]-8,9-dihydro-7H-benzo[7]annulen-2-ol]	0.1
CCOc1ccc(C2=C(c3ccc(O[C@H]4CCN(CCCF)C4)cc3)c3ccc(O)cc3CCC2)c(F)n1 [Example 71, 6-(6-ethoxy-2-fluoro-3-pyridyl)-5-[4-[(3S)-1-(3-fluoropropyl)pyrrolidin-3-yl]oxyphenyl]-8,9-dihydro-7H-benzo[7]annulen-2-ol]	0.2
